Laboratory results published in PubChem BioAssay AID588342 (National Center for Advancing Translational Sciences (NCATS), 2011).
About 25,000 (6.9%) of roughly 360,000 compounds were called active. The shares of active, inactive and inconclusive entries below differ from those in the screen. The call rests on the fitted dose curve; in most records, active means well fitted inhibition curve with a large enough effect; inconclusive means small, poorly fitted or top-dose-only effect; inactive means flat fitted curve, though single readings scatter. Potencies beside an inconclusive call are fits to weak or partial responses and may not hold up.

target: Luciferin 4-monooxygenase (Photinus pyralis) (UniProt P08659); assay: qHTS profiling assay for firefly luciferase inhibitor/activator using purifed enzyme and Km concentrations of substrates (counterscreen for miR-21 project); conditions: purified FLuc, luminescence inhibition; series mostly up to 57.5 µM; further: nearly all actives have a fitted effect of over 55% in size
Chain of UniProt P08659 (P08659 whole entry, looked up): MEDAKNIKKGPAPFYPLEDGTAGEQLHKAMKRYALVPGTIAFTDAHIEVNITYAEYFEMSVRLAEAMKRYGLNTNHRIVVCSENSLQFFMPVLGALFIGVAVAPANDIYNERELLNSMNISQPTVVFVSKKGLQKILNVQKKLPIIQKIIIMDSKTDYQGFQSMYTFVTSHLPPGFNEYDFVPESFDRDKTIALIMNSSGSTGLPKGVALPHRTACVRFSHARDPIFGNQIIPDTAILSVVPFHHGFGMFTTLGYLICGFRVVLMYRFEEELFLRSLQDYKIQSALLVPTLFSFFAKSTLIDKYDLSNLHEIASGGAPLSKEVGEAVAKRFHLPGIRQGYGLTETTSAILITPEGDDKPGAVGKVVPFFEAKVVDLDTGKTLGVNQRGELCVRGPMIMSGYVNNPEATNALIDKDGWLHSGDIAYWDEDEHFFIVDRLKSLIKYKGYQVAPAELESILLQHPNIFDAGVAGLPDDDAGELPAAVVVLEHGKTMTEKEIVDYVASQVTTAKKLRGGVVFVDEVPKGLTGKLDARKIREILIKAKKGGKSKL
Procedure, shortened: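 Purified P. pyralis luciferase (10nM final) with 10uM D-luciferin and 10uM ATP (Km levels) in 50mM Tris acetate pH 7.5, 10mM Mg acetate, 0.01% Tween-20, 0.05% BSA; qHTS 6-point titration, ~60 µM downward; luminescence read.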
Potency means the concentration at half of the fitted maximal effect; tags describe the fitted curve by direction and shape.

SMILES	Potency
C1=C(c2ccccc2)CCN(c2nc3ccccc3n3cnnc23)C1	inconclusive: 19 µM [inhibitor, partial curve, poor fit]
COc1ccc(-c2csc(-c3cccnc3)n2)cc1C	active: 7.57 µM
Cc1cc(S(=O)(=O)Nc2ccc3ccccc3c2)c(C)s1	inactive
N#C/C(=N\O)c1nc2ccccc2s1	inconclusive: 37.9 µM [inhibitor, single point]
CCN(CC)c1ccc(NC(=O)COCc2cc(-c3ccc4c(c3)OCO4)on2)c(C)c1	inconclusive: 12 µM [inhibitor, partial curve, poor fit]
O=C(C[n+]1cc(-c2ccc(F)cc2)n2c1CCC2)c1cccs1	active: 2.39 µM
C(=N\c1nc2ccccc2n1CCN1CCOCC1)/c1cccs1	inconclusive: 23.9 µM [inhibitor, single point]
CCOC(=O)c1ccc(CN(Cc2ccc(F)cc2)S(=O)(=O)c2ccc(F)c(C(=O)Nc3cc(Cl)ccc3OC)c2)cc1	inactive
COc1ccc(Cc2nc(-c3ccc(Br)o3)no2)cc1OC	inconclusive: 26.9 µM [inhibitor, single point]
Cc1ccc2c(CN3C(=O)NC4(CCCCC4)C3=O)cc(=O)oc2c1C	inconclusive: 23.9 µM [inhibitor, single point]
Cc1nc(-n2nc(C)c(Cc3ccc(Cl)cc3)c2C)sc1C(=O)N1CCC(C)CC1	inactive
CC(C)N(C(=O)CSc1nnc(NC2CC2)s1)c1ccccc1	inactive
CN(C)c1ccc(C(C(=O)NCc2ccccc2)N(Cc2cccnc2)C(=O)c2snc(C(N)=O)c2N)cc1 (centres undefined)	inactive
Cn1c(=O)c2cc(S(=O)(=O)NC(Cc3ccccc3)C(=O)Nc3ccc(F)cc3)ccc2n(C)c1=O (centres undefined)	inactive
COc1ccc(C(=O)/C=C(\C)Nc2ccc(NC(C)=O)cc2)cc1	inconclusive: 21.3 µM [inhibitor, single point]
Cc1cc(N2CCOCC2)n2nc(C)c(-c3ccccc3)c2n1	inconclusive: 16.9 µM [inhibitor, partial curve]
COc1ccc(NC(=O)Oc2ccccc2)cc1Cl	inconclusive: 37.9 µM [inhibitor, single point]
Cc1ccccc1NC(=O)c1cc(C(=O)c2cc(Cl)ccc2O)cn(-c2ccccc2C)c1=O	inconclusive: 26.9 µM [inhibitor, single point]
Cc1nc(-c2ccc(S(=O)(=O)Oc3ccccc3Cl)s2)cs1	inconclusive: 30.1 µM [inhibitor, single point]
COc1ccc(/C=N/Nc2ccc(C(=O)O)cc2)cc1Br	active: 0.675 µM
CCN(CC(=O)Nc1cccc(OC)c1)CC(=O)Nc1ccc(C)cc1Cl	inactive
Cc1ccc(N=CC2=C(O)CC(c3ccccc3Cl)CC2=O)cc1 (centres undefined)	inconclusive: 37.9 µM [inhibitor, single point]

SMILES	Potency
CC1(C)CCC/C(=C\c2ccccc2)C1=O	inconclusive: 23.9 µM [inhibitor, partial curve, poor fit]
Cc1ccc(NC(=O)CN(C)S(=O)(=O)c2cccs2)cc1C	inconclusive: 37.9 µM [inhibitor, single point]
CC(C)C(=O)Nc1ccc(N2CCCC2)c(Cl)c1	inconclusive: 16.9 µM [inhibitor, partial curve, poor fit]
S=c1[nH]cc(-c2ccccc2)n1-c1ccccc1Cl	inconclusive: 6.75 µM [inhibitor, single point]
Nc1nc(SCc2ccc(Cl)c(Cl)c2)n[nH]1	inconclusive: 26.9 µM [inhibitor, partial curve, poor fit]
Cc1ccnc(NS(=O)(=O)c2ccc(NC(=O)/C=C/c3cccs3)cc2)n1	inconclusive: 37.9 µM [inhibitor, partial curve, poor fit]
Cc1ccc(SC(CC(=O)c2ccc(C(C)(C)C)cc2)C(=O)O)cc1 (centres undefined)	inconclusive: 37.9 µM [inhibitor, single point]
O=C(Cn1ncc2ccsc2c1=O)N1CCN(c2ccc(Cl)cc2)CC1	inactive
CCCCC(=O)Nc1cccc(-c2nnc(-c3ccccc3)o2)c1	inconclusive: 37.9 µM [inhibitor, single point]
Cc1ccc2c(c1)N(CCC(=O)NC1CCCCC1)C(=O)CO2	inactive
CC(C)(C)c1ccc(OCCC(=O)OCC(=O)NC2CCS(=O)(=O)C2)cc1 (centres undefined)	inconclusive: 4.26 µM [inhibitor, single point]
COc1ccccc1/C=C/C(=O)NNC(=O)c1cccs1	inconclusive: 19 µM [inhibitor, partial curve]
CCN(CC)S(=O)(=O)c1ccc(C)c(NC(=O)/C=C/c2cccs2)c1	inconclusive: 26.9 µM [inhibitor, single point]
O=c1nc(/C=C/c2ccccc2C(F)(F)F)cc(C(F)(F)F)[nH]1	inconclusive: 23.9 µM [inhibitor, partial curve, poor fit]
O=C(COC(=O)CCSc1ccccc1Cl)NCc1ccco1	inconclusive: 37.9 µM [inhibitor, partial curve, poor fit]
CC1CCN(C(C(=O)NC2CCCCC2)c2cc3c(cc2[N+](=O)[O-])OCO3)CC1 (centres undefined)	inconclusive: 26.9 µM [inhibitor, single point]
O=c1c2ccccc2nnn1-c1ccc(Br)cc1	inconclusive: 6.75 µM [inhibitor, full curve]
O=C(/C=C/c1ccccc1)N/C(=C\c1ccco1)C(=O)O	inconclusive: 33.8 µM [inhibitor, partial curve, poor fit]
Cc1cccc(NS(=O)(=O)c2cccc(C(=O)NCC(C)(C)N3CCOCC3)c2)c1	inactive
O=C(N/N=C/c1cccc(OCc2ccccc2)c1)c1ccc(Br)o1	active: 21.3 µM
c1ccc(-n2ncc3c(NCCCN4CCOCC4)ncnc32)cc1	active: 23.9 µM
Cc1cc(C)c(C(=O)/C=C/C=C/c2ccccc2)c(=O)[nH]1	inconclusive: 21.3 µM [inhibitor, partial curve, poor fit]
